{"source": "the supplement of paper PMC3334620", "note": "The full ranking holds about 33,000 sequences; the median of “E-score (-0.5 to 0.5)” is about -0.013, and the highest 2% start at about 0.3. This is one part of the list."}
{"biological_target": "T1, Msn1 (UniProt P22148)", "T1 sequence": "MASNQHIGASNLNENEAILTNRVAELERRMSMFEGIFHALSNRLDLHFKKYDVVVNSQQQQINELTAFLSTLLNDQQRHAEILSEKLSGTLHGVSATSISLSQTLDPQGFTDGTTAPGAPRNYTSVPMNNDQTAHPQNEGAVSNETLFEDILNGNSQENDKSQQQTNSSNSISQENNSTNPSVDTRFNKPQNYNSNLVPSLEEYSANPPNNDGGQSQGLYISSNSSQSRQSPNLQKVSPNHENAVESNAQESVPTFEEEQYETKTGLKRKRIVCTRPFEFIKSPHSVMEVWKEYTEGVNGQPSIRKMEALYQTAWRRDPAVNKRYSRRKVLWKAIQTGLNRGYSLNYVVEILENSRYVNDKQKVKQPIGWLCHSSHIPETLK", "assay": "PBM E-score (8-mer binding enrichment) (E-score (-0.5 to 0.5)); higher = stronger / more preferred TF binding; most listed sequences are background and not binding sites", "conditions": "protein concentration: 200 nM; construct: GST-full length", "how_it_was_run": "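Universal all-10-mer Agilent arrays, fresh or stripped once, were converted to double-stranded form by primer extension. GST-tagged yeast transcription factors from PURExpress in vitro transcription/translation, full-length or DNA-binding domain only, were applied at about 100-200 nM and detected with fluorescent anti-GST. After masliner normalisation, the Universal PBM Analysis Suite scored each ungapped eight-base word together with its reverse complement by E-score.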"}
{"sequence": "CGTCCCAG", "PBM E-score": 0.0129}
{"sequence": "GTAGGCCA", "PBM E-score": 0.0336}
{"sequence": "CAGTGGCG", "PBM E-score": -0.231}
{"sequence": "AGATGCTC", "PBM E-score": -0.2}
{"sequence": "AGGTACTC", "PBM E-score": -0.0571}
{"sequence": "CGCATGCC", "PBM E-score": 0.00255}
{"sequence": "CACGATCA", "PBM E-score": 0.0233}
{"sequence": "ACCTGCGG", "PBM E-score": 0.0291}
{"sequence": "ATGGCTCA", "PBM E-score": -0.00052}
{"sequence": "AGCTGAAA", "PBM E-score": 0.117}
{"sequence": "AGACCTCA", "PBM E-score": -0.119}
{"sequence": "AACCTGAC", "PBM E-score": 0.00442}
{"sequence": "AGGACTCA", "PBM E-score": -0.0648}
{"sequence": "GACGACTC", "PBM E-score": -0.147}
{"sequence": "CCCAACGA", "PBM E-score": -0.0672}
{"sequence": "ACCTTAGT", "PBM E-score": -0.0276}
{"sequence": "CCAACGCA", "PBM E-score": -0.108}
{"sequence": "TAAGCAGA", "PBM E-score": -0.138}
{"sequence": "AGTCGGCG", "PBM E-score": 0.0577}
{"sequence": "GAAGTTTA", "PBM E-score": 0.126}
{"sequence": "ACTCGTGC", "PBM E-score": -0.214}
{"sequence": "GAGGGATC", "PBM E-score": -0.309}
{"sequence": "ACCTAATA", "PBM E-score": 0.194}
{"sequence": "ATCCTAAA", "PBM E-score": -0.0285}
{"sequence": "GGACATGA", "PBM E-score": 0.467}
{"sequence": "GCAAGTCA", "PBM E-score": -0.00666}
{"sequence": "ACTGACAA", "PBM E-score": 0.249}
{"sequence": "ACAACTAA", "PBM E-score": 0.167}
{"sequence": "CCAGAAGG", "PBM E-score": -0.103}
{"sequence": "GTGCTTAA", "PBM E-score": -0.00137}
{"sequence": "TAGGATAA", "PBM E-score": 0.0132}
{"sequence": "CGCTAACC", "PBM E-score": -0.084}
{"sequence": "ATCGTCAC", "PBM E-score": 0.0421}
{"sequence": "GACCTCCC", "PBM E-score": -0.214}
{"sequence": "ACATTTTC", "PBM E-score": 0.337}
{"sequence": "TCGGGGCA", "PBM E-score": -0.104}
{"sequence": "TCATCGGA", "PBM E-score": 0.0601}
{"sequence": "ACACGATG", "PBM E-score": 0.079}
{"sequence": "AGGAAGAC", "PBM E-score": 0.0382}
{"sequence": "GCATTAAC", "PBM E-score": 0.0679}
{"sequence": "ACGCCTCA", "PBM E-score": -0.172}
{"sequence": "ATCGGCGC", "PBM E-score": 0.154}
{"sequence": "GGTATAAC", "PBM E-score": -0.0602}
{"sequence": "AAATAAGG", "PBM E-score": 0.0407}
{"sequence": "AGCTCCAC", "PBM E-score": -0.149}
{"sequence": "CACCAGAG", "PBM E-score": -0.232}
{"sequence": "TAGCGACA", "PBM E-score": 0.24}
{"sequence": "GCGCCCGA", "PBM E-score": -0.0361}
{"sequence": "AGTTTTAG", "PBM E-score": 0.0289}
{"sequence": "GTTACTTA", "PBM E-score": 0.19}
{"sequence": "AAGACGCA", "PBM E-score": 0.0389}
{"sequence": "AACCTAAT", "PBM E-score": -0.119}
{"sequence": "AAGCCAGA", "PBM E-score": 0.00654}
{"sequence": "AATATGAA", "PBM E-score": 0.0746}
{"sequence": "CTGCCTGA", "PBM E-score": 0.118}
{"sequence": "ACTACCGA", "PBM E-score": -0.142}
{"sequence": "ATTCCGCG", "PBM E-score": 0.104}
{"sequence": "GTATCGGA", "PBM E-score": 0.055}
{"sequence": "ACACGAAT", "PBM E-score": 0.167}
{"sequence": "CAGCTCGG", "PBM E-score": -0.0812}
{"sequence": "GTAGAATA", "PBM E-score": 0.0609}
{"sequence": "GGACGCAC", "PBM E-score": 0.0505}
{"sequence": "CTAGCAAC", "PBM E-score": 0.0611}
{"sequence": "ACGTGACG", "PBM E-score": 0.0441}
{"sequence": "TCCACGCA", "PBM E-score": -0.0945}
{"sequence": "ATCACAAT", "PBM E-score": -0.035}
{"sequence": "CACGGAAA", "PBM E-score": 0.151}
{"sequence": "TAGATGGA", "PBM E-score": -0.11}
{"sequence": "GAGTCCGC", "PBM E-score": -0.271}
{"sequence": "CCACAGCC", "PBM E-score": -0.0205}
{"sequence": "CCCAGTCC", "PBM E-score": -0.156}
{"sequence": "CCCACTGA", "PBM E-score": -0.0422}
{"sequence": "ACGGACAT", "PBM E-score": 0.473}
{"sequence": "AGCAGACA", "PBM E-score": 0.0142}
{"sequence": "CACAAAGG", "PBM E-score": -0.115}
{"sequence": "GGGTGTAA", "PBM E-score": -0.0483}
{"sequence": "AATTCAAA", "PBM E-score": 0.128}
{"sequence": "ACCAAGGG", "PBM E-score": -0.0635}
{"sequence": "ATAGTCAA", "PBM E-score": 0.0132}
{"sequence": "AGGGTGCC", "PBM E-score": -0.261}
{"sequence": "GGTCGCGA", "PBM E-score": 0.125}
{"sequence": "CTCCAGAG", "PBM E-score": -0.216}
{"sequence": "GTGACATA", "PBM E-score": 0.328}
{"sequence": "AGGACTGG", "PBM E-score": -0.0567}
{"sequence": "CCTCCTAG", "PBM E-score": -0.0539}
{"sequence": "ACCTCCTC", "PBM E-score": -0.203}
